We go through four compounds from the antibiotic and cytotoxicity screens of Wong et al. (2023).

Some of the results follow.

The experiment relates to S. aureus RN4220. Kind of experiment: growth inhibition call (relative growth <= 0.2). The note with it: 50 µM.
In the case of `C[C@H](CO)N1C[C@H](C)[C@@H](CN(C)Cc2ccc(C(=O)Nc3ccccc3N)cc2)Oc2c(NC(=O)Nc3ccc(F)cc3)cccc2C1=O`, the growth inhibition call is “inactive”.

As to `Cc1ccc(S[C@]2(C(=O)NCC(C)C)CC(=O)N(Cc3cc(C(F)(F)F)cc(C(F)(F)F)c3)[C@@H]2c2ccc(CO)cc2I)cc1`, the growth inhibition call was “inactive”.

In the case of `C[C@@H]1CCCCO[C@H](CN(C)C(=O)c2ccncc2)[C@@H](C)CN([C@H](C)CO)C(=O)c2cc(NC(=O)NC3CCCCC3)ccc2O1`, the growth inhibition call is “inactive”.

Regarding `O=C(C[C@@H]1C[C@H]2c3cc(NC(=O)C4CCOCC4)ccc3O[C@H]2[C@@H](CO)O1)NCc1ccc(Cl)cc1`, the growth inhibition call is “inactive”.
